{
  "source": "PubChem BioAssay AID686979",
  "about": "(National Center for Advancing Translational Sciences (NCATS), 2013)",
  "note": "Where “and” joins values, the source holds several entries; their conditions need not be identical. Equal entries are not always repeated. Out of some 420,000 compounds screened, about 50,000 (12%) were called active. The inconclusive results got no clear call from the source; some entries with a clear call stand among them for comparison. Calls follow the shape of the dose curve; as a rule, active = well fitted inhibition curve with a large enough effect; inconclusive = small, poorly fitted or top-dose-only effect; inactive = flat fitted curve, though single readings scatter. Potencies of inconclusive entries are left out as doubtful fits.",
  "data": [
    {"experiment": "qHTS for Inhibitors of human tyrosyl-DNA phosphodiesterase 1 (TDP1): qHTS in cells in presence of CPT; also: nearly all actives have a fitted effect of over 55% in size; also: potency is read from the fitted curve at half-maximal effect; tags tell the direction and shape of the fitted curve", "settings": "chicken DT40 Tdp1-/-;hTDP1 cells + 20 nM CPT, ATP luminescence, 48 h; series mostly up to 46.2 µM", "method_in_brief": "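Chicken DT40 Tdp1-/- cells stably complemented with human TDP1 were seeded at 400 cells/well in medium containing 20 nM camptothecin, exposed to pin-transferred compounds, and grown at 37 °C for at least 48 hr. Viability was read as ATP luminescence.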", "values": [
      {"molecule": "CC1=C(C(=O)N2CCCCCC2)CC(CC(=O)NCCCCc2ccccc2)C(=O)N1Cc1ccccc1", "note": "(stereo unspecified)", "Potency": "active: 18.4 µM"},
      {"molecule": "COc1ccccc1-c1ccc2c(c1)C(C)(Cc1cc(Cl)ccc1C(F)(F)F)C(=O)N2", "note": "(stereo unspecified)", "Potency": "inconclusive [inhibitor, single point]"},
      {"molecule": "COCCNC(=O)NC(=O)CN1C(=O)NC(Cc2c[nH]c3ccccc23)C1=O", "note": "(stereo unspecified)", "Potency": "inactive"},
      {"molecule": "Cc1cc2c(c(SCC(N)=O)n1)C(=O)OC2", "Potency": "inconclusive [inhibitor, single point]"},
      {"molecule": "CCOC(=O)c1c(-c2ccc(C)cc2)csc1NC(=O)c1ccc(N2C(=O)CCC2=O)cc1", "Potency": "inactive"},
      {"molecule": "Cc1cccc(-n2c(N)cc(=O)nc2SCC(=O)Nc2nnc(C)s2)c1", "Potency": "inactive"},
      {"molecule": "CN(Cc1ccco1)c1cc(-c2ccccc2C(F)(F)F)ncn1", "Potency": "inactive"},
      {"molecule": "COc1ccccc1N(CC(=O)NCCSCc1ccccc1)S(=O)(=O)c1ccc(C)cc1", "Potency": "active: 23.1 µM and active: 9.2 µM"},
      {"molecule": "COc1ccc(NC(=O)Cn2c(=O)n(C(C)C)c(=O)c3oc4ccccc4c32)cc1Cl", "Potency": "inconclusive [inhibitor, single point]"},
      {"molecule": "COc1ccc(C(=O)Cn2nnc(-c3ccccc3NC(=O)c3ccco3)n2)cc1", "Potency": "inconclusive [inhibitor, single point]"},
      {"molecule": "COc1ccc(C2=NS(=O)(=O)N(C)C(C(=O)N(C)Cc3ccccc3)=C2)cc1", "Potency": "inconclusive [inhibitor, partial curve]"},
      {"molecule": "O=C1CN(C(=O)Cc2ccc(F)cc2)C(c2ccccc2)c2cc(Cl)ccc2N1", "note": "(stereo unspecified)", "Potency": "active: 14.6 µM"},
      {"molecule": "Cc1cccc(C)c1NC(=O)C1c2cccc[n+]2CC(=O)N1Cc1cccs1", "note": "(stereo unspecified)", "Potency": "inconclusive [inhibitor, single point]"},
      {"molecule": "CCc1nc2c(OCc3ccc(C(F)(F)F)cc3)cccn2c1N(C)C(=O)c1ccncc1", "Potency": "active: 16.4 µM"},
      {"molecule": "CCSc1nnc2ccc(-c3ccc(OC)c(OC)c3)nn12", "Potency": "inconclusive [inhibitor, single point]"},
      {"molecule": "C=CCCC(=O)Nc1nc(C)c(-c2csc(Nc3ccccc3OC)n2)s1", "Potency": "active: 6.51 µM"},
      {"molecule": "CC1(Cc2cccc(C(F)(F)F)c2)C(=O)Nc2c(Cl)ccc(Cl)c21", "note": "(stereo unspecified)", "Potency": "inconclusive [inhibitor, single point]"},
      {"molecule": "Cn1c(Cn2nnc3ccccc32)nnc1SCC(=O)N1c2ccccc2Sc2ccccc21", "Potency": "active: 13 µM"},
      {"molecule": "CCc1ccccc1N(C)C(=O)Cc1c(C(=O)O)c(C)cn1C", "Potency": "inactive"},
      {"molecule": "Brc1cccc(CNCCSc2nnnn2-c2ccccc2)c1", "Potency": "inactive"},
      {"molecule": "Cc1ccc(S(=O)(=O)N2CCCN(C)c3nc4ccccc4nc32)cc1", "Potency": "inconclusive [inhibitor, partial curve]"},
      {"molecule": "O=C(CCn1c(=O)oc2ccccc21)Nc1ccc2c(c1)OCCO2", "Potency": "inactive"},
      {"molecule": "Cc1ccc(NC(=O)Cc2ccc(-n3c(C)nc4cccnc43)cc2)cc1C", "Potency": "active: 11.6 µM"},
      {"molecule": "Nc1ccc(C(=O)OCC(=O)c2cccc([N+](=O)[O-])c2)cc1", "Potency": "inconclusive [inhibitor, single point]"},
      {"molecule": "COc1ccc(/C(C#N)=C/c2c(-c3ccc(Cl)cc3)nc3c(C)cccn23)cc1", "Potency": "inconclusive [inhibitor, single point]"},
      {"molecule": "Cc1cc(C)cc(OCC(=O)NCCc2nc3ccccc3[nH]2)c1", "Potency": "inconclusive [inhibitor, single point]"},
      {"molecule": "CCOC(=O)C1=C(COC(=O)c2ccco2)NC(=O)NC1CC", "note": "(stereo unspecified)", "Potency": "inactive"},
      {"molecule": "Cc1cc(C)c(NC(=O)C(C)n2nc(-c3ccc(C)c(C)c3)ccc2=O)c(C)c1", "note": "(stereo unspecified)", "Potency": "inconclusive [inhibitor, single point]"},
      {"molecule": "CN1CCN(Cc2ccc(Sc3ccc(Cl)cc3)c([N+](=O)[O-])c2)CC1", "Potency": "inconclusive [inhibitor, single point]"},
      {"molecule": "CN(C)c1ccc(-c2csc(C(O)c3ccc(F)c(F)c3)n2)cc1", "note": "(stereo unspecified)", "Potency": "active: 16.4 µM"},
      {"molecule": "Fc1ccccc1N=C1NN=C(c2ccccc2)CS1", "Potency": "inconclusive [inhibitor, single point]"},
      {"molecule": "Cc1c(C)n2c(SCC(=O)N3CCCCC3)nnc2[nH]c1=O", "Potency": "inactive"},
      {"molecule": "COc1cccc(CNC(=O)CCc2cn(Cc3ccccc3Cl)c3ccccc23)c1", "Potency": "inconclusive [inhibitor, single point]"},
      {"molecule": "CCOc1ccc(/C=N/NC(=O)c2cc3c(OC)cc(OC)c(OC)c3[nH]2)cc1", "Potency": "inconclusive [inhibitor, single point]"},
      {"molecule": "CCOC(=O)C1(C)CCCCN1C(=O)c1ccco1", "note": "(stereo unspecified)", "Potency": "inactive"},
      {"molecule": "COC(=O)c1cccc(-n2c(CCC(=O)O)ccc2-c2ccc(OC)cc2)c1", "Potency": "active: 14.6 µM"},
      {"molecule": "CCOc1ccc(S(=O)(=O)N2CCCCC2)cc1NC(=O)c1cccnc1OCC", "Potency": "inconclusive [inhibitor, partial curve]"},
      {"molecule": "CCOC(=O)c1cc(-c2ccccc2)n(CCCC(=O)Nc2ccc(C(C)C)cc2)c1C", "Potency": "inconclusive [inhibitor, single point]"},
      {"molecule": "CCCNC(=S)Nc1cccc(C(F)(F)F)c1", "Potency": "inactive"},
      {"molecule": "Fc1ccc(Oc2ccnc(Cl)n2)c(Cl)c1", "Potency": "inactive"},
      {"molecule": "Cc1nc2cnc(N(C)C)nc2n(C[C@H]2CCCO2)c1=O", "Potency": "inconclusive [inhibitor, single point]"},
      {"molecule": "CC1CN(C2=NC(=O)/C(=C/c3ccncc3)S2)CC(C)O1", "note": "(stereo unspecified)", "Potency": "inactive"},
      {"molecule": "O=[N+]([O-])c1ccc(N2CCN(c3ccccn3)CC2)c(Cl)c1", "Potency": "inactive"},
      {"molecule": "O=C(Nc1cccc(S(=O)(=O)N2CCCCC2)c1)c1cc2ccccc2o1", "Potency": "inconclusive [inhibitor, single point]"},
      {"molecule": "CC1CCC2(CC1)NC(=O)N(CC(=O)Nc1cc(S(=O)(=O)N3CCCC3)ccc1Cl)C2=O", "note": "(stereo unspecified)", "Potency": "inconclusive [inhibitor, single point]"},
      {"molecule": "Cc1ccc(-c2cc(C(F)(F)F)n3nc(C(=O)N4CCN5CCCC5C4)cc3n2)cc1", "note": "(stereo unspecified)", "Potency": "inconclusive [inhibitor, single point]"},
      {"molecule": "S=C(Nc1cccnc1)NC1CC2CCC1C2", "note": "(stereo unspecified)", "Potency": "inactive"},
      {"molecule": "COc1ccc2c(c1)CC/C(=C/c1cc(OC)c(OC)c(OC)c1)C2=O", "Potency": "inconclusive [inhibitor, full curve, poor fit]"},
      {"molecule": "O=C(COc1ccc2oc3c(c2c1)CCCC3)Nc1ccc(Br)cc1", "Potency": "active: 14.6 µM"},
      {"molecule": "CC(C)C1C(=O)N(Cc2cn(CCC3OCCO3)nn2)CCS(=O)(=O)N1Cc1ccc(-c2ccc(F)cc2)cc1", "note": "(stereo unspecified)", "Potency": "inconclusive [inhibitor, single point]"},
      {"molecule": "CCOC(=O)c1c(C)oc2ncnc(N3CCN(c4ccccc4OC)CC3)c12", "Potency": "inconclusive [inhibitor, single point]"},
      {"molecule": "CC1CCN(c2ccc(-c3cccc(NC(=O)c4ccco4)c3)nn2)CC1", "Potency": "inconclusive [inhibitor, partial curve]"},
      {"molecule": "Cc1cc(C=O)c(C)n1-c1ccc(NC2CCCC2)c([N+](=O)[O-])c1", "Potency": "inconclusive [inhibitor, single point]"},
      {"molecule": "COc1ccc(/C=C/C(=O)NCC2COc3ccccc3O2)cc1OC", "note": "(stereo unspecified)", "Potency": "inactive"},
      {"molecule": "O=C(NCC1Cc2cccc(-c3ccccn3)c2O1)c1cnn2cccnc12", "note": "(stereo unspecified)", "Potency": "inactive"},
      {"molecule": "COc1ccccc1NS(=O)(=O)c1c(C(=O)N2CCCC2)c(C)n(C)c1C", "Potency": "inconclusive [inhibitor, single point]"},
      {"molecule": "Cc1ccccc1C(=O)Nc1ccccc1NC(=O)c1ccccc1C", "Potency": "inactive"},
      {"molecule": "CN(C)C(=O)N1CCN(c2nc(-c3ccccc3)cs2)CC1", "Potency": "inconclusive [inhibitor, single point]"},
      {"molecule": "CCOc1ccc(C(=O)C2CCN(C(=O)c3ccc([N+](=O)[O-])cc3)CC2)cc1", "Potency": "inconclusive [inhibitor, single point]"},
      {"molecule": "O=C(Nc1ccc(Cl)cc1F)c1ccc(COc2c(F)c(F)c(F)c(F)c2F)o1", "Potency": "inactive"},
      {"molecule": "O=C(COc1ccccc1)Nc1cc(NC(=O)COc2ccccc2)cc(C(=O)O)c1", "Potency": "inconclusive [inhibitor, single point]"},
      {"molecule": "COc1cc(OC)cc(C(=O)Nc2ccccc2-c2nc3ccccc3s2)c1", "Potency": "active: 10.3 µM"},
      {"molecule": "O=C1NCCCN1Cc1ccc(Cl)cc1", "Potency": "inactive"},
      {"molecule": "Cn1c(=O)c2c(ncn2CCC(=O)N/N=C/c2ccncc2)n(C)c1=O", "Potency": "inactive"},
      {"molecule": "CN(C)c1ccc(C(CNC(=O)c2ccc(C(C)(C)C)cc2)N2CCOCC2)cc1", "note": "(stereo unspecified)", "Potency": "active: 16.4 µM"},
      {"molecule": "CCC1c2ccc(C)n2CCN1C(=O)Nc1ccc(F)cc1", "note": "(stereo unspecified)", "Potency": "inconclusive [inhibitor, single point]"},
      {"molecule": "CCCOc1cccc(C(=O)Nc2cccc(NC(=O)c3ccc(C(C)(C)C)cc3)c2)c1", "Potency": "inconclusive [inhibitor, single point]"},
      {"molecule": "Cc1[nH]c(C)c(C(=O)/C=C/c2ccc([N+](=O)[O-])cc2)c1C", "Potency": "active: 16.4 µM"},
      {"molecule": "O=C(Nc1nnc(-c2ccncc2)o1)c1ccc2ccccc2c1", "Potency": "active: 8.2 µM"},
      {"molecule": "COc1ccc(CCNC(=O)C2(c3cccs3)CCOCC2)cc1OC", "Potency": "inactive"},
      {"molecule": "Cc1nc2ccc(NS(=O)(=O)c3ccc(F)c(F)c3)cc2s1", "Potency": "active: 18.4 µM"},
      {"molecule": "Cc1ccc(C(=O)N2CCCC(C(=O)c3ccc(Cl)cc3C)C2)cn1", "note": "(stereo unspecified)", "Potency": "inactive"},
      {"molecule": "Cc1csc(NC(=O)CCC(=O)c2cccs2)n1", "Potency": "inactive"},
      {"molecule": "CC(C)(C)NC(=O)C(CCc1ccccc1)n1c(=O)c(-c2ccccc2)nc2ccccc21", "note": "(stereo unspecified)", "Potency": "active: 5.17 µM"},
      {"molecule": "COc1cc(/C=N/N=C2/NC(=O)C(c3ccccc3)S2)ccc1O", "note": "(stereo unspecified)", "Potency": "inactive"},
      {"molecule": "Cc1ccc(NC(=S)NCc2ccc(F)cc2)c(C)c1", "Potency": "inactive"}
    ]}
  ]
}
